The text below walks through data of publication PMC4336329 (PLoS ONE, 2015).

Among all 310,000 compounds or so, about 14,000 (4.5%) showed an effect of 50% or more. The effect is printed as a negative number. The list shows a part of the results.
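Note: peak tail current of the secondary pulse compared with the same well before compound.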

In the assay the target is human ether-à-go-go-related gene (hERG) potassium channel (human, UniProt Q12809). The assay is described as follows: primary screen, population patch clamp on CHO cells stably expressing hERG.
human ether-à-go-go-related gene (hERG) potassium channel, sequence (Q12809 whole entry, looked up): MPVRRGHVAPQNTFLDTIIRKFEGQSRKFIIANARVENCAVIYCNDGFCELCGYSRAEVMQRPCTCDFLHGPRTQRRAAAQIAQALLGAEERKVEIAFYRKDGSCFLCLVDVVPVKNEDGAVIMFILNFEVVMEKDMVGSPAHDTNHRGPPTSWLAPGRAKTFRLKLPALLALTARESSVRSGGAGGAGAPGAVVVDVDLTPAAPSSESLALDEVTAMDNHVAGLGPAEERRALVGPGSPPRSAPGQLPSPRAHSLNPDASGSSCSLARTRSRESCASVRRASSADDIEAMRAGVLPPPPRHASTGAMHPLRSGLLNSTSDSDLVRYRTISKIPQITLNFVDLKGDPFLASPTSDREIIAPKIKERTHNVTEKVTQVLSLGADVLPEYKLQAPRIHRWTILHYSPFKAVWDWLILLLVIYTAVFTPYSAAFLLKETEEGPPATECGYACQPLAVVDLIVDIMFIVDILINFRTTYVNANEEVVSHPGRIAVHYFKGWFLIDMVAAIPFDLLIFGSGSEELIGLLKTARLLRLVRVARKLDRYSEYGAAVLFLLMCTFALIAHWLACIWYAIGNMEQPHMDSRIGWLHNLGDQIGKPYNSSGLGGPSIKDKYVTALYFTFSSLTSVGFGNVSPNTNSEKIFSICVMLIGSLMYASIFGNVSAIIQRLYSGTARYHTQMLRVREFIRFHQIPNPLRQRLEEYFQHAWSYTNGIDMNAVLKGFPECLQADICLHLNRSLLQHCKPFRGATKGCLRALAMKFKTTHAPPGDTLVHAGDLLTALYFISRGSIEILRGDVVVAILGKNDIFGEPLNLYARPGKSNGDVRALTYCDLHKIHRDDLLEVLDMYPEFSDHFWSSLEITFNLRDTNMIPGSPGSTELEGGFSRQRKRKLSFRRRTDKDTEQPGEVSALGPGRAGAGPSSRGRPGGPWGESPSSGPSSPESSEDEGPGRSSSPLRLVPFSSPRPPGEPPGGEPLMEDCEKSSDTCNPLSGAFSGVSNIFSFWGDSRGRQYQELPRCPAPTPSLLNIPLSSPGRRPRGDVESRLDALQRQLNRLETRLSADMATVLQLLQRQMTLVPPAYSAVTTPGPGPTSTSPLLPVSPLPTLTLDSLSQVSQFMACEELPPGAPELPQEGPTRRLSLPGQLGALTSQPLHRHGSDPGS
Turning to `COc1ccc2nc(NC(=O)CN(C)S(=O)(=O)c3cccs3)sc2c1`, the “hERG current change (%, negative = inhibition) at 10uM” value is reported as -26%.
The value for `CSCCCc1cn([C@@H](CO)C(=O)NCCCCCCCCCCC(=O)N2CCNCC2)nn1` was 19.3%; that for `COc1cccc(C(=O)NC2CC3CCCC(C2)N3CC(=O)Nc2ccc(N(C)C)cc2)c1` (stereo not drawn) was -49.3%; that for `COc1ccc(Cl)cc1NC(=O)c1c(-c2ccccc2)noc1C` was 7.22%.
In the case of `COc1ccc(C(=O)Nc2cccc(C(=O)N3CCCC3)c2)cc1` it was -3.26%; in that of `O=C1NC(=O)C(CC(=O)N(Cc2cccs2)C2(C(=O)NC3CCCCC3)CCCCC2)N1` (stereo not drawn), 9.42%.
The value for `CC(=O)NC(Cc1c[nH]c2ccccc12)C(=O)NCCc1ccccc1` (stereo not drawn) was 15.4%.
Turning to `CCN(CC(=O)Nc1ccc2c(c1)OCCO2)C(=O)/C=C/c1cccc(OC)c1OC`, the “hERG current change (%, negative = inhibition) at 10uM” value was -2.25%.
In the case of `O=C(O)CC(CC(=O)N1CCN(C(=O)c2ccco2)CC1)c1ccccc1` (stereo not drawn) it was 5.68%.
As to `COc1c2n(C)ccc3c-2n(c(=O)c1=O)c1ccccc31`, the “hERG current change (%, negative = inhibition) at 10uM” value stood at 16.8%.
The value for `O=C(CN1C(=O)c2ccc([N+](=O)[O-])cc2C1=O)Nc1nccs1` was 21.4%.
Regarding `COc1ccc(N2C(=O)CN=C2Nc2cccc(C)c2C)cc1OC`, the “hERG current change (%, negative = inhibition) at 10uM” value is 13%.
The value for `COc1cc(NC(=O)[C@@H]2CCCN2S(=O)(=O)c2cccc3cccnc23)cc(OC)c1OC` was 6.58%.
In the case of `O=C(NCc1ccco1)C(=S)N1CCCC1` it was 14.6%.
The value for `Clc1ccc2nc(CSCc3ccccc3)cn2c1` was -6.87%; that for `COc1ccc(-c2sc(Nc3ccccc3)n[n+]2C)c(C)c1C.[Cl-]` was -1.19%.
With `CC(C)(C)NC(=O)CN(C(=O)c1ccc(Cl)nc1)c1cccc2ccccc12`, the “hERG current change (%, negative = inhibition) at 10uM” value was -21.4%.
In the case of `O=C(Cn1c(=O)cnc2ccccc21)N1CCN(S(=O)(=O)c2cccc([N+](=O)[O-])c2)CC1` it was 4.07%; in that of `N#Cc1cc(Oc2ccc(Cl)cc2)c(N2CCOCC2)cc1C#N`, -1.79%.
The value for `COCCNC(=O)CSCc1nc(-c2ccc(SC)cc2)oc1C` was -10%; that for `Cc1cccc(C(=O)N2CCN(CCNC(=O)C(=O)Nc3ccc(F)cc3)CC2)c1` was -38.8%; that for `Cc1ccc2[nH]c3c(NCc4ccccc4)ncnc3c2c1` was -32.7%.
In the case of `Cc1c(-c2ccccc2)cn2c1-c1ccc(C)n1CC2` it was -0.42%.
As to `O=C(NCC(c1ccco1)N1CCc2ccccc2C1)c1ccc(F)cc1` (stereo not drawn), the “hERG current change (%, negative = inhibition) at 10uM” value is -10.7%.
In the case of `CC(=O)c1cccc(NC(=O)c2cc(-c3ccco3)nc3ccccc23)c1` it was 11.4%.
The value for `C=CCNC(=O)c1sccc1Oc1ccc(F)cc1[N+](=O)[O-]` was -15.2%; that for `O=C(O)c1ccccc1-c1nnc2c(Cl)cc(C(F)(F)F)cn12` was 20.8%; that for `Cc1cc(C)n(-c2ccc(C(=O)OCC(=O)NCc3ccc(F)cc3)cc2)n1` was 5.33%.
The value for `CN(C)S(=O)(=O)c1cccc(NC(=S)N/N=C/C(c2ccccc2)c2ccccc2)c1` was 1.1%; that for `O=S(=O)(c1ccc2c(c1)OCCO2)N1CCC(O)(c2ccc(Cl)cc2)CC1` was -12.2%; that for `CCCCCCSC1=C(C#N)C(=O)NC2(CCCCC2)S1` was 16%.
Take `Nc1c(Cl)cc(C2=NCCn3nc4cc([N+](=O)[O-])ccc4c32)cc1Cl`: the “hERG current change (%, negative = inhibition) at 10uM” value is reported as -22.9%.
The value for `CN(C)CCCNC(=O)c1ccccn1` was 7.54%; that for `Cc1onc(-c2c(Cl)cccc2Cl)c1C(=O)N(C)Cc1ccccc1` was 12.7%.
The value for `O=C(NNC(=S)Nc1ccccc1)c1ccc2ncccc2c1` was 32.6%; that for `CCCNC(=O)C(Sc1ccccc1)c1ccccc1` (stereo not drawn) was -1.18%.
For the molecule `CCc1ccc2[nH]c(O)c(N=Nc3nc(-c4ccccc4)cs3)c2c1`, the “hERG current change (%, negative = inhibition) at 10uM” value is on record as 7.61%.
Regarding `CC(C)C(C(=O)NCC1CCCO1)N(Cc1ccco1)C(=O)CNS(=O)(=O)c1ccccc1` (stereo not drawn), the “hERG current change (%, negative = inhibition) at 10uM” value was found to be 5.62%.
The value for `CN(N)N=Nc1nc2c([nH]1)c(=O)n(C)c(=O)n2C` was 0.0258%; that for `O=C1C2CCCN2C(=O)N1CCCN1CCN(c2cccc(Cl)c2)CC1` (stereo not drawn) was -2.8%; that for `COc1ccc2nc(NC(=O)c3cc(C)oc3C)sc2c1` was 6.94%.
The value for `CNCCCOc1cccc(Oc2ccccc2)c1.O=C(O)C(=O)O` was -17.2%.
In the case of `CCN(CC)C(=O)C1CCCN(Cc2ccccc2F)C1` (stereo not drawn) it was 15.4%; in that of `Nc1cc(=O)[nH]c(SCc2ccc(Cl)cc2Cl)n1`, 22.1%.
In the case of `CCCN1CCCC(C(=O)c2cc(C)c(OC)c(C)c2)C1` (stereo not drawn), the “hERG current change (%, negative = inhibition) at 10uM” value was -3.65%.
The value for `O=C(Nc1nc2ccsc2c(=O)s1)c1ccco1` was 13.6%.
On to `COc1ccc(S(=O)(=O)N2CCCOC2CNC(=O)C(=O)NCCCn2ccnc2)cc1` (stereo not drawn), for which the “hERG current change (%, negative = inhibition) at 10uM” value is recorded as -3.17%.
The value for `CC(NC(=O)N1CCN(c2ccccc2F)CC1)c1ccc(F)c(F)c1` (stereo not drawn) was 18.7%.
In the case of `CN1CCC(=C(c2ccccc2)c2ccc(Br)cc2)CC1.Cl` it was -68.3%; in that of `Cc1ccc(CNC(=O)CS(=O)Cc2nc(-c3ccccc3Cl)oc2C)cc1` (stereo not drawn), -13.3%.
In the case of `Cc1ccc(C(=O)Nc2ccc3c(c2)nc2n3CCSC2)cc1` it was -42.6%; in that of `Cc1ccc(NC(=O)CCNS(=O)(=O)c2ccccc2)cc1S(=O)(=O)N1CCOCC1`, 3.54%; in that of `COCCn1c(SCCN2CCCCC2)nc2ccccc2c1=O`, -78.4%.
In the case of `O=C(CSCc1ccc(Cl)cc1Cl)Nc1ccc(O)cc1C(=O)O`, the “hERG current change (%, negative = inhibition) at 10uM” value stood at 14.2%.
In the case of `Cc1csc(=O)n1CC(=O)OCC(=O)NC(C)c1ccc(F)cc1` (stereo not drawn) it was 0.61%; in that of `O=C(CSc1nnnn1C1CCCCC1)NCc1ccccc1`, 0.514%.
As for `CCOC(=O)c1cc2c(OC)ccc(OC)c2n1CC(=O)c1ccccc1`, the “hERG current change (%, negative = inhibition) at 10uM” value was 0.305%.
